The record followed here is the supplement of paper PMC12067230.

This is a noisy data set.
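Also: [psi-pin-] Saccharomyces cerevisiae expressing SupN fusions, induced by 100 µM Cu2SO4, selected 7 d at 30 °C without adenine and uracil, scored by deep sequencing of output versus input.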

The first series in a line: amyloid nucleation score relative to library mode (yeast Sup35 reporter selection) (log enrichment difference); higher = more amyloid nucleation; sequences are the first 22 residues of the Bri2 peptide extended by up to 12 random residues. As to conditions: random library (experiment): 1;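 active = nucleation score significantly above 0 at FDR 0.05; inactive = not significantly above 0 or absent from output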.
On to EASNCFAIRHFENKFAVETLICLSSWLYLALAPI, for which the amyloid nucleation score entry is “inactive”.

In turn, EASNCFAIRHFENKFAVETLICLSSYVLGWHHRD registered an amyloid nucleation score of 2.48.

As for EASNCFAIRHFENKFAVETLICLSTDVVQDLCWG, the amyloid nucleation score amounted to 4.

As for EASNCFAIRHFENKFAVETLICLSTECTLCRYSG, the amyloid nucleation score was found to be 7.94.

Take EASNCFAIRHFENKFAVETLICLSVAMRTGWGLA: the amyloid nucleation score entry is “inactive”.

Consider EASNCFAIRHFENKFAVETLICLSVATRIYYLDR, for which the amyloid nucleation score entry is “inactive”.

On to EASNCFAIRHFENKFAVETLICLSVCELRALRRE, for which the amyloid nucleation score result was “inactive”.

For the sequence EASNCFAIRHFENKFAVETLICLSVCGRGAWARE, the amyloid nucleation score turned out to be 7.19.

Take EASNCFAIRHFENKFAVETLICLSVGCSWLSEKM: the amyloid nucleation score was 4.87.

For the sequence EASNCFAIRHFENKFAVETLICLSVGVRRHGS, the amyloid nucleation score entry is “inactive”.

In turn, EASNCFAIRHFENKFAVETLICLSVKDMCRCMMA yielded an amyloid nucleation score of 6.51.

EASNCFAIRHFENKFAVETLICLSVTSESSHALM showed an amyloid nucleation score of 2.33.

Take EASNCFAIRHFENKFAVETLICLSVVTWM: the amyloid nucleation score was 5.13.

EASNCFAIRHFENKFAVETLICLSWCVPRPESR showed an amyloid nucleation score of 5.38.

Turning to EASNCFAIRHFENKFAVETLICLSWDRIPKQRRE, the amyloid nucleation score entry is “inactive”.

Turning to EASNCFAIRHFENKFAVETLICLSWFYWKPIGKG, the amyloid nucleation score entry was “inactive”.

Consider EASNCFAIRHFENKFAVETLICLSWKNQMVQTAS, for which the amyloid nucleation score result was “inactive”.

Take EASNCFAIRHFENKFAVETLICLSWLKFLVCE: the amyloid nucleation score result is “inactive”.

Sequence EASNCFAIRHFENKFAVETLICLSWSYHADSMAF showed an amyloid nucleation score of 2.87.

With EASNCFAIRHFENKFAVETLICLSWVHETLVTSG, the amyloid nucleation score entry is “inactive”.

In turn, EASNCFAIRHFENKFAVETLICLSYGDT came in with an amyloid nucleation score of 4.41.

As for EASNCFAIRHFENKFAVETLICLSYQVVSRISVM, the amyloid nucleation score entry is “inactive”.

As to EASNCFAIRHFENKFAVETLICLTALTLTMGDSM, the amyloid nucleation score result was “inactive”.

The sequence EASNCFAIRHFENKFAVETLICLTAYIGESSCGD registered an amyloid nucleation score of 7.73.

EASNCFAIRHFENKFAVETLICLTCSWVMGAGRC displayed an amyloid nucleation score of 7.26.

With EASNCFAIRHFENKFAVETLICLTFLMTPECPCG, the amyloid nucleation score result was “inactive”.

Consider EASNCFAIRHFENKFAVETLICLTICRWGCFAFC, for which the amyloid nucleation score result is “inactive”.

EASNCFAIRHFENKFAVETLICLTIRVVMRGQYI: the amyloid nucleation score result is “inactive”.

As for EASNCFAIRHFENKFAVETLICLTKWGTQLSTRM, the amyloid nucleation score result was “inactive”.

Consider EASNCFAIRHFENKFAVETLICLTLIVLTWLVCS, for which the amyloid nucleation score came out at 1.46.

As for EASNCFAIRHFENKFAVETLICLTLQFEQEPD, the amyloid nucleation score result is “inactive”.

The sequence EASNCFAIRHFENKFAVETLICLTMCHCTGVCTE displayed an amyloid nucleation score of 6.67.

As to EASNCFAIRHFENKFAVETLICLTMMLC, the amyloid nucleation score result was “inactive”.

EASNCFAIRHFENKFAVETLICLTQIMVRLVCAE: the amyloid nucleation score entry is “inactive”.

Consider EASNCFAIRHFENKFAVETLICLTRGKEDVHSHA, for which the amyloid nucleation score result is “inactive”.

In the case of EASNCFAIRHFENKFAVETLICLTSSYEVVWATG, the amyloid nucleation score result was “inactive”.

Still in this series, the particulars now being: random library (experiment): 2.
As to EASNCFAIRHFENKFAVETLICLSVFCTSMVRNC, the amyloid nucleation score result is “inactive”.

Take EASNCFAIRHFENKFAVETLICLSVHDTALCIKS: the amyloid nucleation score entry is “inactive”.

As to EASNCFAIRHFENKFAVETLICLSVLKYG, the amyloid nucleation score is 6.3.

EASNCFAIRHFENKFAVETLICLSVLVCHRMLNC gave an amyloid nucleation score of 4.75.

In turn, EASNCFAIRHFENKFAVETLICLSVSSYHHHPFL displayed an amyloid nucleation score of 2.17.

Regarding EASNCFAIRHFENKFAVETLICLSVT, the amyloid nucleation score result was “inactive”.

The sequence EASNCFAIRHFENKFAVETLICLSVVGCFECFNV came in with an amyloid nucleation score of 7.3.

Turning to EASNCFAIRHFENKFAVETLICLSVVNHVFILCR, the amyloid nucleation score result was “inactive”.

EASNCFAIRHFENKFAVETLICLSWFCFIVSIAS: the amyloid nucleation score was determined as 3.39.

With EASNCFAIRHFENKFAVETLICLSWNEYWTSVIG, the amyloid nucleation score came to 1.26.

Consider EASNCFAIRHFENKFAVETLICLSWTAEWQWLC, for which the amyloid nucleation score worked out at 6.25.

EASNCFAIRHFENKFAVETLICLSYFGDGYVRHF registered an amyloid nucleation score of 5.44.

In the case of EASNCFAIRHFENKFAVETLICLSYI, the amyloid nucleation score turned out to be 5.31.

The sequence EASNCFAIRHFENKFAVETLICLSYILSCSGTRA yielded an amyloid nucleation score of 3.59.

The sequence EASNCFAIRHFENKFAVETLICLSYSVGFFVDVC came in with an amyloid nucleation score of 1.33.

Turning to EASNCFAIRHFENKFAVETLICLSYVDC, the amyloid nucleation score came to 4.84.

EASNCFAIRHFENKFAVETLICLSYYDPSVYVYR: the amyloid nucleation score was 4.19.

For EASNCFAIRHFENKFAVETLICLT, the amyloid nucleation score result is “inactive”.

On to EASNCFAIRHFENKFAVETLICLTCIVLDDLLSM, for which the amyloid nucleation score stood at 6.35.

EASNCFAIRHFENKFAVETLICLTDESGSSSGRH: the amyloid nucleation score result was “inactive”.

EASNCFAIRHFENKFAVETLICLTDFWD: the amyloid nucleation score result is “inactive”.

Consider EASNCFAIRHFENKFAVETLICLTENQ, for which the amyloid nucleation score entry was “inactive”.

For EASNCFAIRHFENKFAVETLICLTFCFNVVNLVG, the amyloid nucleation score result was “inactive”.

EASNCFAIRHFENKFAVETLICLTFIALFSFKHP had an amyloid nucleation score of 0.494.

For the sequence EASNCFAIRHFENKFAVETLICLTFMLSPQTTDN, the amyloid nucleation score worked out at 7.17.

Sequence EASNCFAIRHFENKFAVETLICLTFTMYCSCKNT yielded an amyloid nucleation score of 5.99.

EASNCFAIRHFENKFAVETLICLTGFGYCRECSR had an amyloid nucleation score of 6.35.

As for EASNCFAIRHFENKFAVETLICLTGK, the amyloid nucleation score entry is “inactive”.

On to EASNCFAIRHFENKFAVETLICLTKSLHTAYRAY, for which the amyloid nucleation score result was “inactive”.

As to EASNCFAIRHFENKFAVETLICLTLGFFRVWMIQ, the amyloid nucleation score result is “inactive”.

On to EASNCFAIRHFENKFAVETLICLTLS, for which the amyloid nucleation score was -0.104.

As for EASNCFAIRHFENKFAVETLICLTMFCFNLFYWL, the amyloid nucleation score result is “inactive”.

Turning to EASNCFAIRHFENKFAVETLICLTNIFCSDAFVY, the amyloid nucleation score entry is “inactive”.

Consider EASNCFAIRHFENKFAVETLICLTRFWAL, for which the amyloid nucleation score entry was “inactive”.

Turning to EASNCFAIRHFENKFAVETLICLTRIVSVSDLST, the amyloid nucleation score entry is “inactive”.

With EASNCFAIRHFENKFAVETLICLTRSF, the amyloid nucleation score result is “inactive”.

Turning to EASNCFAIRHFENKFAVETLICLTRVCPVDRTLD, the amyloid nucleation score entry is “inactive”.

Take EASNCFAIRHFENKFAVETLICLTRWYHLMLSQG: the amyloid nucleation score entry is “inactive”.

In the case of EASNCFAIRHFENKFAVETLICLTSFCILYNGKG, the amyloid nucleation score entry is “inactive”.

EASNCFAIRHFENKFAVETLICLTSKEYGFGFME gave an amyloid nucleation score of 4.2.

As for EASNCFAIRHFENKFAVETLICLTSLTC, the amyloid nucleation score turned out to be 5.24.

Staying with this series, now noted: random library (experiment): 3.
With EASNCFAIRHFENKFAVETLICLSTGVLGSWGLR, the amyloid nucleation score result was “inactive”.

As for EASNCFAIRHFENKFAVETLICLSTYNLLHISGE, the amyloid nucleation score result is “inactive”.

For EASNCFAIRHFENKFAVETLICLSVAITNRSSML, the amyloid nucleation score came out at 1.13.

The sequence EASNCFAIRHFENKFAVETLICLSVARMR showed an amyloid nucleation score of 2.61.

For the sequence EASNCFAIRHFENKFAVETLICLSVFRADRLLFL, the amyloid nucleation score is 5.42.

Turning to EASNCFAIRHFENKFAVETLICLSVRMV, the amyloid nucleation score entry was “inactive”.

On to EASNCFAIRHFENKFAVETLICLSVVTVRLGKVR, for which the amyloid nucleation score result is “inactive”.

Take EASNCFAIRHFENKFAVETLICLSYCLCPRVARV: the amyloid nucleation score came out at 6.69.

Regarding EASNCFAIRHFENKFAVETLICLSYLRYRGSPAV, the amyloid nucleation score was 0.727.

Turning to EASNCFAIRHFENKFAVETLICLSYTRVN, the amyloid nucleation score result was “inactive”.

Sequence EASNCFAIRHFENKFAVETLICLTCAMAG gave an amyloid nucleation score of 7.78.

EASNCFAIRHFENKFAVETLICLTDATMSRNGDG: the amyloid nucleation score entry was “inactive”.

For the sequence EASNCFAIRHFENKFAVETLICLTDLVACRGVVA, the amyloid nucleation score entry was “inactive”.

Sequence EASNCFAIRHFENKFAVETLICLTEAAHHGEVRF yielded an amyloid nucleation score of 0.0182.

On to EASNCFAIRHFENKFAVETLICLTGLKLLRPRGF, for which the amyloid nucleation score amounted to 0.

On to EASNCFAIRHFENKFAVETLICLTGRNWESRETS, for which the amyloid nucleation score turned out to be 3.18.

Sequence EASNCFAIRHFENKFAVETLICLTGSGHTRSRVW gave an amyloid nucleation score of 3.65.

As to EASNCFAIRHFENKFAVETLICLTHNLCVSIG, the amyloid nucleation score is 3.95.

For the sequence EASNCFAIRHFENKFAVETLICLTLLPWK, the amyloid nucleation score entry is “inactive”.

Regarding EASNCFAIRHFENKFAVETLICLTLMSSMMCV, the amyloid nucleation score entry is “inactive”.

In the case of EASNCFAIRHFENKFAVETLICLTNSSKHHFLPG, the amyloid nucleation score is 3.56.

Regarding EASNCFAIRHFENKFAVETLICLTPQATYGWGNG, the amyloid nucleation score result is “inactive”.

Sequence EASNCFAIRHFENKFAVETLICLTPSVFLSCVW returned an amyloid nucleation score of 4.38.

Turning to EASNCFAIRHFENKFAVETLICLTRARFLGRMWG, the amyloid nucleation score stood at 0.778.

For the sequence EASNCFAIRHFENKFAVETLICLTRAVSSPHGLA, the amyloid nucleation score came to 3.5.

For the sequence EASNCFAIRHFENKFAVETLICLTSEFYVYVRVS, the amyloid nucleation score entry was “inactive”.

In the case of EASNCFAIRHFENKFAVETLICLTSRAMWDPLCA, the amyloid nucleation score entry is “inactive”.
